Measurements taken from PMC4336329 (PLoS ONE, 2015).
Screen size: about 310,000 compounds; about 2,200 (0.71%) showed an effect of 50% or more. The effect is printed as a negative number. Some of the results follow.

target: human ether-à-go-go-related gene (hERG) potassium channel (human, UniProt Q12809); test: primary screen, population patch clamp on CHO cells stably expressing hERG
Sequence (Q12809 whole entry, looked up): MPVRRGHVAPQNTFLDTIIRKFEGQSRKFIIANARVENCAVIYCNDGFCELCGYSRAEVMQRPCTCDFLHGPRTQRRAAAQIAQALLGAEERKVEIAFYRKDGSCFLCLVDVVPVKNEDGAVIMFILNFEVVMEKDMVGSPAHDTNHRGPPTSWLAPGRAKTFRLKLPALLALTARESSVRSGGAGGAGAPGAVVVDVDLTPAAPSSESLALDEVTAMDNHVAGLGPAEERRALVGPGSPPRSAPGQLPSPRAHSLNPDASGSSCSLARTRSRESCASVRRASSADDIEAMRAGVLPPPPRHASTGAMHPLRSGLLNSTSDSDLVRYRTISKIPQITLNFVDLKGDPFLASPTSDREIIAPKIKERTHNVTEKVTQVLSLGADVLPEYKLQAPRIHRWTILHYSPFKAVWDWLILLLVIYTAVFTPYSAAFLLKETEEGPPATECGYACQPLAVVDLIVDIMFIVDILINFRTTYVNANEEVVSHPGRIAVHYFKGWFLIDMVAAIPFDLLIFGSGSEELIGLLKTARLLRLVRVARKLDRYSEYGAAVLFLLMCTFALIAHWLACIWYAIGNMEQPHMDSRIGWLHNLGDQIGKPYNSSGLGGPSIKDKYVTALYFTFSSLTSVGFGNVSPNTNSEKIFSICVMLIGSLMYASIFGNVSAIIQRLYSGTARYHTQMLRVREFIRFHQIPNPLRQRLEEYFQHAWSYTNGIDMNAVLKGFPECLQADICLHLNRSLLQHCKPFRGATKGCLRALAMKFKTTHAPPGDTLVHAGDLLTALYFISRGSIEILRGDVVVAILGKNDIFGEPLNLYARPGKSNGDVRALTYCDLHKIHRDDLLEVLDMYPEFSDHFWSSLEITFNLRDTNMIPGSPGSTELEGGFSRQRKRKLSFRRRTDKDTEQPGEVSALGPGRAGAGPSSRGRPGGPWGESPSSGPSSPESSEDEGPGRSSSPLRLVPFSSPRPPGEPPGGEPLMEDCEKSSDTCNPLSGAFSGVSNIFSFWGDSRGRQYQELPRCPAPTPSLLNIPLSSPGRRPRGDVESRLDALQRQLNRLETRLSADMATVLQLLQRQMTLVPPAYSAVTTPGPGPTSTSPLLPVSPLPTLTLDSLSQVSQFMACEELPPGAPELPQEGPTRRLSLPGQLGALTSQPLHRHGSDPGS

SMILES	hERG current change (%, negative = inhibition) at 1uM
Cc1cc(OCC(=O)N(C)C2CCCCC2)cc(C)c1Cl	14.5%
COc1ccc(C2=CC3=C(Br)C(=O)C(C)(O)C(=O)C3=CO2)cc1 (centres unmarked)	12.2%
O=C(CCCOc1ccccc1)Nc1ccccc1C(F)(F)F	3.68%
Nc1c(C(=O)N/N=C/c2cccnc2)oc2nc(-c3ccccc3)cc(-c3ccco3)c12	10.9%
COc1ccc(-n2nc(C(=O)NCC(=O)NCCCN3CCN(C)CC3)c3ccccc3c2=O)cc1	1.39%
OCCN(CCO)c1ccc(C(c2ccccc2Cl)c2ccc(N(CCO)CCO)cc2Cl)c(Cl)c1	10.8%
CCc1c(C#N)sc(C(N)=O)c1CC	1.19%
Cc1ccc(C2NC(=O)c3ccccc3N2)s1 (centres unmarked)	6.42%
Cn1ncc2c(Nc3ccccc3Cl)nc(Nc3ccccc3Cl)nc21	10.4%
O=C(O)CSc1c[nH]c2ccccc12	7.93%
COc1ccccc1CNC(=S)Nc1cc(C)ccc1C	8.07%
c1ccc2c(CSCc3nc4ccccc4[nH]3)cccc2c1	-3.41%
CC1=CN2C(=N)/C(=C\c3cn(CCCOc4ccccc4)c4ccccc34)C(=O)N=C2S1	8.13%
O=C(O)c1ccc(NC(=O)c2cccs2)cc1	12.6%
CCOc1cc(C(=O)CCC(=O)OCC(=O)Nc2ccc(C)c(S(=O)(=O)N(C)C)c2)ccc1O	9.83%
COc1ccc(-c2ccccc2NC(=O)C2CCCN(Cc3ccc(C)o3)C2)cc1 (centres unmarked)	11.7%
CC1(C)CC(=O)c2cc(OCC(=O)NCCN3CCOCC3)ccc2O1	16.6%
Cn1cc(CCC(=O)NC2CC2)c2ccccc21	5.81%
CC1CCCN(C(=O)C2CCN(Cc3ccc4c(c3)OCO4)CC2)C1.O=C(O)C(=O)O (centres unmarked)	11%
CC(Oc1ccccc1)C(=O)NC1CCSc2ccccc21 (centres unmarked)	7.69%
Cc1ccc2c(c1)N(CC(=O)N1CCOCC1)C(=O)C(C)O2 (centres unmarked)	11.7%
CC(C)[C@H]1COC(NC2=N[C@@H](C(C)C)CO2)=N1	7.94%
COc1ccc(NS(=O)(=O)c2cccc(C(=O)NNC(=O)CNC(=O)c3ccccc3F)c2)cc1	-6.72%

SMILES	hERG current change (%, negative = inhibition) at 1uM
Cc1ccc(Cc2nnc(SCC(=O)Nc3ccccc3Cl)[nH]c2=O)cc1	1.62%
CC(=O)Nc1ccc(N/C(=N\S(=O)(=O)c2ccccc2)c2ccccc2)cc1	11.7%
COc1ccccc1N1CCN(CC(C)N(C(=O)C2CCCCC2)c2ccccn2)CC1 (centres unmarked)	2.25%
CCN(CC)c1ccc(NC(=O)CCc2nnc3ccc(N4CCCCC4)nn23)c(C)c1	1.63%
O=C(O)c1cc(-c2ccc(Br)s2)nc2ccccc12	18.3%
COc1ccc(OC)c(NC(=O)CNC(=O)c2cccs2)c1	12%
CCCCN(C(=O)CC1CCCC1)c1c(N)n(CC(C)C)c(=O)[nH]c1=O	-18.7%
CCOC(=O)C1(CCCc2ccccc2)CCN(C(=O)CN2CCOC2=O)CC1	-3.4%
Oc1oc(-c2ccccc2)nc1/C=N/c1ccccn1	11%
CC(C)[C@H](NC(=O)[C@@H]1Cc2ccccc2CN1)C(=O)Nc1ccc2c(c1)OCCO2	3.13%
O=C(CNC(=O)Cc1cccc2ccccc12)NCc1ccc(F)cc1	11.7%
CCN(CC)CC(=O)Nc1sc(C)cc1C(=O)c1ccc(C)cc1	2.7%
COc1cccc(OC)c1C(=O)OCC(=O)NCc1ccco1	10.3%
Cc1cc(NC(=O)C2CC(=O)N(c3ccc(F)cc3)C2)no1 (centres unmarked)	4.12%
O=C(CCc1nnc(C2CCCCC2)o1)NCc1cccc(-n2cccn2)c1	16.4%
CN(C)S(=O)(=O)c1cccc(NC(=S)NCc2ccco2)c1	27.1%
COC(=O)C1CSC(C(=O)OC)N1C(=O)Nc1c(C)cccc1C (centres unmarked)	5.66%
CCn1cc(/C=C(\NC(=O)c2ccccc2F)C(=O)N2CCCC2)c2ccccc21	6.3%
CCc1nnc(NC(=O)C2COc3ccccc3O2)s1 (centres unmarked)	2.41%
CC1(C)C(C(=O)NN2C(=O)c3ccccc3C2=O)C1(C)C	12.8%
C=CCn1c(SCC(N)=O)nc2scc(-c3ccc(C)o3)c2c1=O	0.329%
NC1=NC(=O)C(Cc2ccccc2)S1 (centres unmarked)	5.86%
COc1cc2c(cc1OC)-c1nnc(-c3cccs3)n1C1(CCCC1)C2	5.8%

SMILES	hERG current change (%, negative = inhibition) at 1uM
COc1ccc(S(=O)(=O)NC2CC(=O)N(c3ccc(C)c(C)c3)C2)cc1C (centres unmarked)	9.54%
CCCS(=O)(=O)N1CCN(C(=O)CCC2CCCC2)CC1	2.43%
COc1ccc(Cl)cc1C(=O)C1CCCN(Cc2cnc(N3CCOCC3)s2)C1 (centres unmarked)	-24.7%
Cc1c(CNC2CCCC(C)C2C)c(C(=O)O)c(C)n1Cc1ccccc1 (centres unmarked)	16%
Cc1nc(NC(=O)c2ccco2)sc1-c1csc(Nc2ccc(Cl)cc2)n1	14.6%
CCCCCCNC(=O)c1cccc(-c2ccc(C)c3ccccc23)n1	-5.6%
CCOC(=O)c1c(S(=O)(=O)NCC(=O)NCc2ccccc2Cl)c(C)n(C)c1C	7.51%
CC12CC(NC(=O)N1Cc1ccccc1)c1ccccc1O2 (centres unmarked)	2.79%
O=C(c1cccc(S(=O)(=O)N2CCCCC2)c1)N1CCOCC1	4.48%
COc1ccc(/C=C\c2nc(O)c([N+](=O)[O-])c(=O)[nH]2)cc1O	11.2%
COCCOC(=O)c1[nH]c2c(c1C)C(=O)CC(c1ccco1)C2 (centres unmarked)	1.23%
CS(=O)(=O)N(Cc1ccco1)CC(O)Cn1cc(C=O)c2ccccc21 (centres unmarked)	-0.274%
Cc1cccc(NC(=S)N/N=C/c2ccc([N+](=O)[O-])s2)c1	11.2%
NC(=O)c1ccc(-n2nnnc2SCC(=O)Nc2ccc(F)cc2)cc1	25.3%
O=C1c2ccccc2C(=O)N1CCCCSc1nnc2ccccn12	-1.96%
CC(Oc1ccc(C(=O)NC2CCCCC2)cc1)C(=O)O (centres unmarked)	14.1%
Cc1ccc(S(=O)(=O)NCC(=O)OCC(=O)N(C)C2CCS(=O)(=O)C2)cc1 (centres unmarked)	15.9%
CC1CCN(CCC(=O)Nc2ccc(F)c(F)c2)CC1	8.68%
O=C(CSC1=NC(=O)C(c2ccccc2)C(=O)N1)Nc1ccccc1Cl (centres unmarked)	10.1%
COC(=O)C1=C(c2ccc(F)cc2F)C[C@@H]2CC[C@H]1N2C(=O)NCc1ccco1	9.41%
CC(c1ccccc1)N(NC(=O)C(O)(c1ccccc1)c1ccccc1)C(=O)c1ccccc1 (centres unmarked)	9.29%
COC(=O)c1cc(C(=O)OC)cc(N2C(=O)CC(Sc3nc(C)cc(C)n3)C2=O)c1 (centres unmarked)	-1.29%
CC1CCCN(S(=O)(=O)c2ccc([N+](=O)[O-])cc2)C1 (centres unmarked)	6.42%

SMILES	hERG current change (%, negative = inhibition) at 1uM
O=C(Cn1cc([N+](=O)[O-])cn1)NCCc1nc2ccccc2[nH]1	14.7%
Cc1ccc(C(=O)COC(=O)c2ccccc2N2C(=O)C3C4CCC(C4)C3C2=O)cc1C (centres unmarked)	-23.7%
O=C(Nc1ccc(Br)cc1)c1cccnc1N1CCCCC1	0.624%
O=S(=O)(c1ccc(Cl)cc1)N1CCCC(c2nc(-c3ccc(F)cc3)no2)C1 (centres unmarked)	7.73%
CCCCCCCc1c(O)nc(SCCN2CCOCC2)[nH]c1=O.Cl	-2.95%
Cc1ccccc1NS(=O)(=O)c1ccc2c(c1)NC(=O)CO2	9.63%
COC(=O)C1=C(C)NC(=O)NC1c1c(O)ccc2ccccc12 (centres unmarked)	10.7%
COc1ccc(-c2ccc(SCC(=O)NCc3ccco3)nn2)cc1OC	-3.88%
CC1=C(C(=O)Nc2cccc(C(=O)NCc3ccc(F)cc3)c2)SCCO1	15.3%
C=C(C)CNC(=S)N/N=C\c1ccc2c(c1)OCO2	-15.4%
O=C1OCC/C1=C\c1ccc(O)cc1	5.83%
O=C(c1ccco1)N1CCCN(Cc2nc(Cc3ccccc3)no2)CC1	1.8%
CCC(CC)C(=O)Nc1cccc(-c2ccc3nncn3n2)c1	9.22%
COc1ccc(Cn2c(=O)[nH]c3cc(C(=O)N4CCN(c5ccccc5F)CC4)ccc3c2=O)cc1	11.8%
CC(=O)Nc1ccccc1OC(C)C(=O)N1CC(C)CC(C)C1 (centres unmarked)	4.64%
COc1ccc(OCCCC(=O)Nc2nncs2)cc1	9.03%
O=C1/C(=C/C=C/c2ccccc2)Oc2c1ccc(O)c2CN1CCN(CCO)CC1	10.4%
O=C(O)c1ccc(-n2c(O)c(/C=C3\C=Nc4ccccc43)c(=O)[nH]c2=O)cc1	14.5%
CCN(CC(=O)NCc1ccc(Cl)cc1)C(=O)CCc1ccccc1O	-13.1%
Cc1ccc(Oc2cc(NN3CCCCC3)c([N+](=O)[O-])cc2[N+](=O)[O-])c([N+](=O)[O-])c1	9.74%
